Laboratory results as given in ChEMBL document CHEMBL4888484, “Replenishing the malaria drug discovery pipeline: Screening and hit evaluation of the MMV Hit Generation Library 1 (HGL1) against asexual blood stage Plasmodium falciparum ,using a nano luciferase reporter read-out” (2022).
Hit rate of the full screen: of about 150,000 compounds, about 540 (0.36%) showed an effect of 50% or more. The list shows a part of the results.

Each compound was assayed on Plasmodium falciparum (assay: Primary screen in NF54 nanoGlo assay, in single point, at 2uM, 72h; a lower Z score goes with more inhibition). Conditions: timepoint 72 hour.
Assay type: functional, Erythrocyte
For `COC[C@@H]1[C@H](C(=O)NCc2ccccc2)CCC(=O)N1C`, the “% Inhibition” value was -3% and the Z score was 0.3. For `COCCN(Cc1cc(NC(=O)CC(C)(C)C)ccc1N(C)C)C(=O)c1ccco1`, the “% Inhibition” value was 7% and the Z score was -0.67. `O=C(NCc1cccc(CO)c1)N1CCC[C@@H]1CCc1ccccc1` was tested, and the “% Inhibition” value was -5% and the Z score was 0.74. For `c1ccc(-c2cc(CNc3ncnc4c3CCNCC4)[nH]n2)cc1`, the “% Inhibition” value was -13% and the Z score was 1.3. In the case of `COc1nccnc1C[C@@H]1COc2ccccc2C1`, the “% Inhibition” value is reported as 4% and the Z score is reported as -0.61. In the case of `CC1CC(C)CN(C(C(=O)NC2CCCC2)c2ccc(Cl)cc2)C1` (stereo unspecified), the “% Inhibition” value is reported as -7% and the Z score is reported as 1.06. With `O=C(NC[C@H]1CCCO1)c1nn(-c2ccc(Cl)cc2)c(=O)n(Cc2ccc(F)cc2)c1=O` the “% Inhibition” value was -19% and the Z score was 1.96. `CS(=O)(=O)c1ccccc1-c1nnc(NC(=O)c2ccc3c(c2)CCCC3)o1` was tested, and the “% Inhibition” value was -13% and the Z score was 1.67. In the case of `CC(C)(O)CN1CCN(c2ccc(F)c3cnccc23)CC1`, the “% Inhibition” value is reported as -18% and the Z score is reported as 3.35. `CCOC1CCN(C(=O)Nc2cccc(N3CCCCCC3)c2)CC1` was tested, and the “% Inhibition” value was 0% and the Z score was 0.07. `CCN(CC(=O)Nc1cn[nH]c1)C1CC1` was tested, and the “% Inhibition” value was -11% and the Z score was 1.91. In the case of `O=C(CCc1ccccc1)Nc1ccc(N2C(=O)c3ccccc3C2=O)c(Cl)c1`, the “% Inhibition” value is reported as -6% and the Z score is reported as 0.82. With `O=C(Nc1ccc(N2CCCN(Cc3cccc(F)c3)C2=O)cc1)C1CCC1` the “% Inhibition” value was -7% and the Z score was 1.31. `Cc1cc(F)ccc1-n1cc(C(=O)N2C[C@H]3CCC[C@H]3C2)nn1` was tested, and the “% Inhibition” value was 2% and the Z score was -0.29. With `COc1ccc(CN(C(=O)COc2c(C)cccc2C)[C@H]2CCS(=O)(=O)C2)cc1OC` the “% Inhibition” value was 10% and the Z score was -0.88. In the case of `CC1(C)CN(C(=O)c2cccc(Nc3nccs3)c2)[C@H]2COC[C@H]21`, the “% Inhibition” value is reported as -16% and the Z score is reported as 2.12. With `COc1cccc(-c2nccn2CCCOC2CCN(C)CC2)c1` the “% Inhibition” value was -5% and the Z score was 0.57. With `Cn1c(N)c(S(=O)(=O)N2CCN(c3ccccc3Cl)CC2)c(=O)n(C)c1=O` the “% Inhibition” value was 59% and the Z score was -11.06. `C[C@H]1CN(S(=O)(=O)c2cccnc2)c2cccc(Cl)c2O1` was tested, and the “% Inhibition” value was 1% and the Z score was -0.09. In the case of `Cc1cc2c(cc1-c1cc(-c3ccc[nH]3)nc(N)c1C#N)OCCO2`, the “% Inhibition” value is reported as -11% and the Z score is reported as 1.3. In the case of `CC(C)[C@H](NCC(=O)Nc1ccc(Cl)cn1)c1nnc2ccccn12`, the “% Inhibition” value is reported as -7% and the Z score is reported as 0.89. `O=C(NCCN1CCCC1=O)[C@H](O)c1cccc(F)c1` was tested, and the “% Inhibition” value was 5% and the Z score was -0.99. In the case of `CN(C)CCN(CCN(C)C)S(=O)(=O)c1c(F)cccc1F`, the “% Inhibition” value is reported as -15% and the Z score is reported as 1.54.
